± gives the standard deviation of the averaged measurements. This is one part of the list.
tested on: PfAP2-I AP2 domain 3 (GST-tagged); assay: gcPBM binding intensity (ln(normalized median fluorescence intensity)); higher = stronger DNA binding
Procedure, shortened: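 Binding intensity values are the highest Masliner-normalised natural-log median intensity among replicate spots of either probe orientation. The binding step lasted 1 h in 1× PBS with 1% milk, 0.2 mg/ml BSA, 0.5% salmon testes DNA and 0.03% Triton X-100, using GST-tagged P. falciparum DNA-binding domains expressed in E. coli on an Agilent 4 × 180k array of primer-extended double-stranded 36-bp intergenic genomic probes plus negative controls. Alexa488 anti-GST antibody and a 488 nm scan detected bound protein.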

Sequence	gcPBM binding intensity (ln)
TCTATAATATTTTTCACACACCATTTCCTTAAACAC [CACACA_site6747]	8.26 ± 0.26
ATTTTTTTATTTTGAAGTACATAAACTTTATATATA [XGTACX_site1746]	7.99 ± 0.43
ATTACATATGTCGCTTGTACGCATAATTTTTTTATA [XGTACX_site5782]	8.04 ± 0.48
ATTTAAAAAAAAAGACGTACATTTATATAGAATCCT [XGTACX_site6457]	8.01 ± 0.45
TTATTCATACAATATCGTACATATATATATATATAT [XGTACX_site1185]	9.47 ± 0.33
TCTAATCTGGAGAAAAGTACATAGTATCTGGTAACA [XGTACX_site2540]	7.68 ± 0.68
GTACACCTATAATATACACACAACAAATATGCACAT [CACACA_site6603]	9.64 ± 0.39
ATTATATATATATATACACACACATATATATATATA [CACACA_site8373]	9.33 ± 0.67
ATCTTATATATATGTGTGCACGTATATATAAGCAAT [GTGCAC_site9933]	10.7 ± 0.32
TTATAAATAAAAAGAGTGCAATTATAAATATATATA	10.1 ± 0.23
AAATAAAATATGAACAGTACTTTTGATATAACCATT [XGTACX_site1873]	7.74 ± 0.64
AAAAAAATACAAATATGTACACATATATATTTAAAA [XGTACX_site4729]	7.62 ± 0.2
GGAATAACCGGACACACACACACATATATATATATA [CACACA_site5874]	9.31 ± 0.19
ACATAATATATATATTGTACAAATATATTATTGTTA [XGTACX_site3385]	7.69 ± 0.42
AAAAAATTATATAATAATAGAACTATACATTTTATT [GTGCAC_negctrl_site645]	7.31 ± 0.41
AGCCACGGGTTATATACACACATAATCAAATAAAAT [CACACA_site6117]	7.79 ± 0.45
ATTTTTAATGGATAAGTGCATAATATTATGATGCAA	10.9 ± 0.64
TATGTAATAAAATATACACACAATATACTTATATAT [CACACA_site3682]	7.53 ± 0.55
AGAAAGATGCAAGAAACATGCAAAAAAAAAATTTCT [TGCATGCA_site725]	7.85 ± 1
TGTATTCCTTTTTATAGTACAATTTAAAAGTATAAA [XGTACX_site2045]	7.89 ± 0.16
CACAAATATACAAATACACACAAATATACTCATATA [CACACA_site5339]	7.46 ± 0.26
TACATAAATTAATAGTCACACACGTATTTTTTATAT [CACACA_site8806]	7.57 ± 0.52

Sequence	gcPBM binding intensity (ln)
TAGTTCCTCAAAAATTTCCTTTGTCATTTTATTCAC [GTGCAC_negctrl_site20]	7.6 ± 0.83
GTTATACAAAATAATACATGCATGTCCTACATATAT [TGCATGCA_site320]	8.21 ± 0.24
TAAAGAAATTCTTCATGTACTTATTATTTCTCTTTT [XGTACX_site6817]	7.66 ± 0.61
TATGGAATAAATTTATCCATACATCTTATAACATAT [XGTACX_negctrl_site500]	7.68 ± 0.47
AGCTATATAAATAATACATGCATTGTTCAGGTATTT [TGCATGCA_site964]	7.68 ± 0.55
ATTTATAATATTCAAGTGCATATATATTTTTTACTT	9.57 ± 0.14
TACATAAAATATATCACACATATAATATATATATAT [CACACA_site5834]	8.8 ± 0.13
AAAAAAAAAAAAAAATATAAATATATATATATATAT [GTGCAC_negctrl_site28]	9.27 ± 0.23
TATGTATTAAATTTTACACACATGATTCTCTATATA [CACACA_site2298]	7.63 ± 0.4
AATTAAATATTATAAACACACATATATATTATTTTT [CACACA_site865]	7.5 ± 0.42
AAACGAACATATAAATGTACATATATATACATATAT [XGTACX_site8086]	7.83 ± 0.43
TACAAAAAAAATGTATTTAGGACATATATATGTTTA [XGTACX_negctrl_site455]	7.24 ± 0.36
ATTGTAAATATAGAAGTGCAAAAGGGTATGAAATGA	10.07 ± 0.021
TATATAAAATAATAATGTACTCATTAAAATTATAGA [XGTACX_site4507]	7.535 ± 0.064
ATGTATCCAATAGGAGTGCATAATTCTATTAACACC	10.7 ± 0.59
AAAGAAAAAAAAAAAAAAAAAAAAAAAATTATACAT [CACACA_negctrl_site7]	7.35 ± 0.45
ATATATATATATATATGTACATATATTCGATTATTA [XGTACX_site557]	9.49 ± 0.6
ATAATATTTCTTACCTTTGGATGTTCTAATTTTTTT [CACACA_negctrl_site1317]	7.79 ± 0.86
GAATTTCGATATATGTGTACGCATTTGTATTATAGG [XGTACX_site6332]	7.94 ± 0.52
TACATATTGCACAAATAAAAAAGAACAAAAAAAAAA [CACACA_negctrl_site1200]	10.7 ± 0.79
AAAAATAACATATAAACACACATATATATATATATA [CACACA_site3802]	9.31 ± 0.35
TACTTTATATTATATATATATATATATATATATATA [CACACA_negctrl_site1765]	9.14 ± 0.61

Source: the supplement of paper PMC11417369
